Substitutions are numbered along the chain they refer to. “And” between values parts separate entries of the source, which are not always exact repeats. Identical values can stand only once. This continues a long series; more values of the same kind are listed elsewhere.
Columns and labels:
Type in all cases: cell-based
[1] = molecular target: T1, FPR1 WT (Homo sapiens, UniProt P21462); test: cAMP inhibition assay, WT FPR1
T1 construct: expressed in transfected cells; host or cells: HeLa cells, transient, pcDNA3.1(+)
T1 sequence (P21462 1-350): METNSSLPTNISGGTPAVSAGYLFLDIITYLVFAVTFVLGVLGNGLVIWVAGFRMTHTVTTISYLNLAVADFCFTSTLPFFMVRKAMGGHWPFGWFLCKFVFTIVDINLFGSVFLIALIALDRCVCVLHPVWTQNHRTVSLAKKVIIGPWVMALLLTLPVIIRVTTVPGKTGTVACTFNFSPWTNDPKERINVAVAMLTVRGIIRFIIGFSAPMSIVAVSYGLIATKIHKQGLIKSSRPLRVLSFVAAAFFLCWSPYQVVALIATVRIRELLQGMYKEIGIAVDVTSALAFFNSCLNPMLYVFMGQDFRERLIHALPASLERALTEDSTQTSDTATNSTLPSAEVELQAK
From the text: (§1) FPR1 cDNA in the pcDNA3.1(+) vector (Invitrogen) was used as a template for gene manipulation. The mutations of FPR1 were introduced in the receptor through overlap extension PCR with elaborately designed primers (GENEWIZ, Suzhou, China). The sequences of the primers were listed in Supplementary Table 2. Two fragments of FPR1 (separated at mutated positions) were assembled into pre-cut pcDNA3.1(+) vectors with the ClonExpress Ultra One Step Cloning Kit (Vazyme Biotech, C115). Plasmids with FPR1 mutations were confirmed by DNA sequencing (GENEWIZ).
(§2) For functional studies, FPR1 and its mutants were expressed in HeLa cells as above. The cells were resuspended in HBSS buffer plus 5 mM HEPES, 0.1% BSA (w/v) and 0.5 mM 3-isobutyl-1-methylxanthine and seeded into 384-well plates. […] AG-14 was synthesized by Sungening Biotechnology (Shenzhen, China). Different concentrations of the ligands were prepared plus a fixed dose of forskolin with the buffer above. […] Intracellular cAMP levels were measured with the LANCE Ultra cAMP kit (PerkinElmer, TRF0263) following the manufacturer’s instructions. […] Intracellular cAMP levels were calculated according to the TR-FRET signals of the samples and cAMP standards.
(§3) The data were analyzed with Prism 6.0 (GraphPad, San Diego, CA). For dose-response analysis, the curves were plotted with the log[agonist] vs. response equation (three parameters) in the software. Data points were presented as the percentages (mean ± SEM) of the maximal cAMP level for each construct, from at least three independent experiments, as indicated in figure legends. The pEC50 values were the negative logarithm of the EC50 values, which were obtained from the dose-response curves. For cell surface expression, data points were presented as the percentages (mean ± SEM) of the flow cytometry fluorescence signals of WT FPR1. For statistical comparison, a p-value of 0.05 or lower is considered statistically significant.

[2] = molecular target: T2, FPR1 R201A (Homo sapiens, UniProt P21462, R201A); test: cAMP inhibition assay, FPR1 R201A
T2 construct: expressed in transfected cells; host or cells: HeLa cells, transient, pcDNA3.1(+)
T2 sequence (P21462 1-350 R201A): T1 sequence (P21462 1-350) with R201A
From the text: as §1, §2, §3

[3] = molecular target: T3, FPR1 F291A (Homo sapiens, UniProt P21462, F291A); test: cAMP inhibition assay, FPR1 F291A
T3 construct: expressed in transfected cells; host or cells: HeLa cells, transient, pcDNA3.1(+)
T3 sequence (P21462 1-350 F291A): T1 sequence (P21462 1-350) with F291A
From the text: as §1, §2, §3

[4] = molecular target: T4, FPR1 W254A (Homo sapiens, UniProt P21462, W254A); test: cAMP inhibition assay, FPR1 W254A
T4 construct: expressed in transfected cells; host or cells: HeLa cells, transient, pcDNA3.1(+)
T4 sequence (P21462 1-350 W254A): T1 sequence (P21462 1-350) with W254A
From the text: as §1, §2, §3

[5] = molecular target: T5, FPR1 Y257A (Homo sapiens, UniProt P21462, Y257A); test: cAMP inhibition assay, FPR1 Y257A
T5 construct: expressed in transfected cells; host or cells: HeLa cells, transient, pcDNA3.1(+)
T5 sequence (P21462 1-350 Y257A): T1 sequence (P21462 1-350) with Y257A
From the text: as §1, §2, §3

[6] = Log[M] -4.3, single replicate readings
[7] = Log[M] -5.0, single replicate readings
[8] = Log[M] -5.7, single replicate readings
[9] = Log[M] -6.4, single replicate readings
[10] = Log[M] -7.1, single replicate readings
[11] = Log[M] -7.8, single replicate readings
[12] = Log[M] -8.5, single replicate readings

COc1cc(C=NNC(=O)c2ccc3c(c2)OCO3)ccc1OCc1ccccc1 [Fig. 5c]
cAMP response, source data of Fig. 5c [1, 6]: 20.4 and 42.5 and 37.3 and 30.7 and 33.1 and 22.2 | cAMP response, source data of Fig. 5c [1, 7]: 30.4 and 35.6 and 42.4 and 19.5 and 36.4 and 24.0 | cAMP response, source data of Fig. 5c [1, 8]: 40.4 and 50.7 and 84.2 and 40.3 and 33.6 and 25.9 | cAMP response, source data of Fig. 5c [1, 9]: 87.5 and 65.8 and 43.6 and 78.3 and 56.9 and 62.0 | cAMP response, source data of Fig. 5c [1, 10]: 77.7 and 86.3 and 96.2 and 64.2 and 98.0 and 81.7 | cAMP response, source data of Fig. 5c [1, 11]: 97.4 and 88.7 and 121.7 and 96.9 and 127.4 and 112.3 | cAMP response, source data of Fig. 5c [1, 12]: 121.5 and 92.5 and 68.2 and 113.1 and 100.9 and 59.4 | cAMP response, source data of Fig. 5c [2, 6]: 58.4 and 56.8 and 52.6 and 44.5 and 35.1 and 29.1 | cAMP response, source data of Fig. 5c [2, 7]: 64.6 and 66.5 and 67.4 and 33.1 and 35.1 and 7.1 | cAMP response, source data of Fig. 5c [2, 8]: 27.4 and 85.5 and 103.1 and 79.2 and 67.9 and 43.7 | cAMP response, source data of Fig. 5c [2, 9]: 123.9 and 103.4 and 80.5 and 44.6 and 79.3 and 87.5 | cAMP response, source data of Fig. 5c [2, 10]: 96.2 and 104.2 and 101.1 and 82.1 and 104.5 and 73.8 | cAMP response, source data of Fig. 5c [2, 11]: 94.8 and 131.9 and 95.9 and 99.5 and 115.2 and 72.8 | cAMP response, source data of Fig. 5c [2, 12]: 86.8 and 86.4 and 117.5 and 87.0 and 119.9 and 92.1 | cAMP response, source data of Fig. 5c [3, 8]: 64.0 and 54.4 | cAMP response, source data of Fig. 5c [3, 9]: 101.2 and 95.2 and 83.2 and 72.7 and 84.6 and 98.0 | cAMP response, source data of Fig. 5c [3, 10]: 106.8 and 85.5 and 106.6 and 93.8 and 100.2 and 96.3 | cAMP response, source data of Fig. 5c [3, 11]: 119.7 and 75.8 and 106.3 and 116.4 and 90.6 and 91.4 | cAMP response, source data of Fig. 5c [3, 12]: 104.4 and 100.2 and 83.9 and 93.4 and 104.9 and 113.0 | cAMP response, source data of Fig. 5c [4, 6]: 36.8 and 58.6 and 57.6 and 38.5 and 42.8 and 49.4 | cAMP response, source data of Fig. 5c [4, 7]: 47.1 and 60.3 and 62.9 and 53.0 and 65.6 and 68.0 | cAMP response, source data of Fig. 5c [4, 8]: 100.6 and 95.4 and 94.1 and 72.8 and 65.9 and 77.2 | cAMP response, source data of Fig. 5c [4, 9]: 113.5 and 148.2 and 135.8 and 93.1 and 95.8 and 83.7 | cAMP response, source data of Fig. 5c [4, 10]: 91.1 and 103.4 and 87.4 and 89.1 and 118.6 and 116.3 | cAMP response, source data of Fig. 5c [4, 11]: 103.6 and 105.4 and 122.2 and 126.9 and 94.2 and 83.4 | cAMP response, source data of Fig. 5c [4, 12]: 91.3 and 89.9 and 82.5 and 100.6 and 78.2 and 121.6 | cAMP response, source data of Fig. 5c [5, 6]: 51.7 and 61.9 and 39.5 and 51.2 and 43.2 and 15.4 | cAMP response, source data of Fig. 5c [5, 7]: 60.7 and 49.4 and 56.6 and 54.8 and 51.3 and -1.5 | cAMP response, source data of Fig. 5c [5, 8]: 54.9 and 91.2 and 101.7 and 113.5 and 44.6 and 61.0 | cAMP response, source data of Fig. 5c [5, 9]: 102.6 and 110.8 and 130.2 and 115.3 and 94.4 and 80.2 | cAMP response, source data of Fig. 5c [5, 10]: 117.3 and 89.4 and 110.5 and 134.7 and 130.9 and 78.0 | cAMP response, source data of Fig. 5c [5, 11]: 114.8 and 96.3 and 109.1 and 94.8 and 116.1 and 105.1 | cAMP response, source data of Fig. 5c [5, 12]: 94.4 and 94.5 and 98.8 and 97.3 and 91.9 and 86.9
